Reference: the RNAGym collection of RNA variant scans (doi:10.1093/nar/gkz1192)
Read counts are not given, so values of variants with three or more changes are uncertain.

B1: CPEB3 Ribozyme (parent)
chain: UAACAGGGGGCCACAGCAGAAGCGUUCACGUCGCAGCCCCUGUCAGAUUCUGGUGAAUCUGCGAAUUCUGCUGUAUAUCUC

Variants of: B1
Experiment: self-cleavage, relative activity (ratio to wild type); higher = more cleavage; in vitro, sequencing
Outline: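 Relative activity compares each variant's cleaved/total read fraction with that of the unmutated ribozyme. To get these fractions, barcoded CPEB3 ribozyme libraries from rounds of error-prone PCR were transcribed with T7 RNA polymerase for 5 hours at 37°C and then given 15 min of DNase I treatment before EDTA was added. The RNAs were reverse transcribed with template switching and sequenced on Illumina, and DNA sequencing linked barcodes to variants. A minimum of 5 reads applied, and three batches were averaged.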

Variant	self-cleavage
UAACAGGUGGCCACAGCAGAAGAGUUCACGUCGCAGCCCCUGUCAGAUCCUGGUGAAUCUGCGAGUUCUGCUGUAUAUCUC [G8U C23A U49C A65G]	0.12
UAACAGGUGGCCACAGCAGAAGAGUUCACGUCGCAGCCCCUGUCGGAUUCUGGUGAAUCUGCGGAUCCUGCUGUAUAUCUC [G8U C23A A45G A64G U67C]	0.08
UAACAGGUGGCCACAGCAGAAGCGUUCACGUCGCAGUCCCUGCCAGAUUCUGGUGAAUCGGCAAAUUCUGCUGUAUAUCUC [G8U C37U U43C U60G G63A]	0.08
UAACAGGUGGCCACAGCAGAAGCGUUCACGUCGCAGCCCCUGUCAGAUUCUGGUGAAUCUGCGAUUUCUGCUGCAUAUCUC [G8U A65U U74C]	0.06
UAACAGGUGGCUACAGCAGAAGCGUUCACGUCGCAGCGCCUGUCAGAUUCUGGUGAAUCUGCGAAUUCAGCUGUAUAUCUC [G8U C12U C38G U69A]	0.04
UAACAGGUGGCCACAGCAGAAGCGUUCUCGUCGCAGCCCCUGUCGGAUUCUGGUGAGUCUGCGAAUUCUGCAGUAUAUCUC [G8U A28U A45G A57G U72A]	0.05
UAACAGGUGGCCACAGCAGAAGCGUUCGCGUCGCAGCCCCUGUCAGAUUCUGGUGAAUCUGCGAAUUCCGCUGUAUAUCUC [G8U A28G U69C]	0.12
UAACAGGUGGCCACAGCAGAAGCGUUCACGUCGCUGCCCCUGCCAGAUUCUGGUGAAUCAGCGAAUUCUGCUGUACAUCCC [G8U A35U U43C U60A U76C U80C]	0.04
UAACAGGUGGCCACAGCAGAAGCGUUCACGUCGCGGCCCCUGUCAGAUUCUGGUGAAUCCGCGAAUUCUGCCGUAUAUCGC [G8U A35G U60C U72C U80G]	0.07
UAACAGGUGGCCACAGCAGAAGCGUUCACGUCGCCGCCCCUGUCAGAUUCUGGUGAAUCUGCGAAUCCUGCUGUAUAUCUC [G8U A35C U67C]	0.05
UAACAGGUGGCCACAGCAGAAGUGUUCACGUUGCGGCUCCUGUCAGAUUCUGGUGAAUCUGCGAAUUCUGCUGUAUAUCUC [G8U C23U C32U A35G C38U]	0.04
UAACAGGUGGCCACAGCAGAAGCGUUCACGUAGCAGCCCCUGUCAGAUUCAGGUGAAUCUGCGAAUUCUGCUGUAUAUCUC [G8U C32A U51A]	0.05
UAACAGGUGGCCACAGCAGAUGCGUUCACGUCGCAGACCCUGUUAGAUUCAGGUGAACCUGCGAAUUCUGCUGUAUAUCAC [G8U A21U C37A C44U U51A U58C U80A]	0.03
UAACAGGUGGCCACAGCAGAAGCGUUCACGUCGCAGCCCCUGUCAGGUUCUGGUGAAUCUGCGGAUUCUGCUGUAUAUCUC [G8U A47G A64G]	0.36
UAACAGGUGGCCACAGCAGAAGCGUUCACGUCGCAGCCCCUGUCAGAUUCUGGUGAAUCUGCGGAUUCUGCUGCAUAUCUC [G8U A64G U74C]	0.06
UAACAGGUGGCCACAGGAGAAGCGUUCACGGCGCAACCCCUGUCAGAUUCUGGUGAAUCUGAGGAUUCUGCAGUAUAUCUC [G8U C17G U31G G36A C62A A64G U72A]	0
UAACAGGUGGCCACAGCAGAAGCGUUCACGUCGCAGCCCCUGUCAGAUUCUGGUGGAUCUGCGGGCUCUGCUGUAUACCUC [G8U A56G A64G A65G U66C U78C]	0.04

Variant	self-cleavage
UAACAGGUGGCCACAGCAGAAGCGUUCGCGUCGCAGCCCCUGUCAGAUUCUGGUGAAUCUGCGAAUUCUGCCGUAUAUCCC [G8U A28G U72C U80C]	0.48
UAACAGGUGGGUACAGCAGAAGCGUCCACGUCGAAGCCCCUGUCAGUUUCUGGUGAAUCUGCGAAUUCUGCUGUAUAUCUC [G8U C11G C12U U26C C34A A47U]	0.04
UAACAGGUGGCCACAGCAGAAGCGUUCACGUCGCAGUCCCUGCCAGGUUCUGGUGAACCUGCGACUUCUGCUGUAUAUCUC [G8U C37U U43C A47G U58C A65C]	0.05
UAACAGGUGGCCACAGCAGAAGCGUUCGCGUCGCAGCCCCUGCCAGAUUUUGGUGGAUCUGCGAAUUCUGCUGUAUAUCUC [G8U A28G U43C C50U A56G]	0.12
UAACAGGUGGCCACAGCAGAAGCGUUCGCGUCGCAGCCCCUGUCAGAUUCUGGUGAAUCUGCGGAUUCUGCUGUAUACCUC [G8U A28G A64G U78C]	0.1
UAACAGGUAGCCACAGCAGAAGCGUUCGCGUCGCAGCCCCUGUCAGAUUCUGGUGAAUCUGCGAAUUCUGCUGAAUAUCUC [G8U G9A A28G U74A]	0.4
UAACAGGUGGCCACAGCAGAAGCGUUCACGUCGCAGUCCCUGUCAGAUUCUGGUGACUCCGCGACUUCUGCUGUAUAUCUC [G8U C37U A57C U60C A65C]	0.09
UAACAGGUGGCUACAGCAGAAGCGUUCAUGACGCAGCCCCUGUCGGAUUCUGGUGAAUCUGCGAAUUCUGCUGUAUAUCAC [G8U C12U C29U U31A A45G U80A]	0.03
UAACAGGUGACCACAGCAGAAGCGUCCACGUCGCAGCCCCUGUCAGAUUCUGGUGAAUCUGCGUAUCCUGCUGUAUAUCUC [G8U G10A U26C A64U U67C]	0.05
UAACAGGUGGCCACAGCAGAAGCGUUCACGUCGCAGCCCCUGUCAGAUUCUGGUGAGUCUGCGAGUUCUGCUGUAUAUCUC [G8U A57G A65G]	0.06
UAACAGGUGGCCACAGCAGAAGCGUUCGCGUCGCGGCCCCUGUCGGAUUCUGGUGAAUCUGCGAAUUCUGCUGUAUAUCUC [G8U A28G A35G A45G]	0.11
UAACAGGUGGCCACAGCAGAGGCGUUCACGUCGCAGCCCCUGUCAGAUUCUGGUGAAUCUGCGAAUUCUGCUGUAUAUCCC [G8U A21G U80C]	0.21
UAACAGGUGGCCACAGCAGAAGCGUUCUCGUCGCAGCCCCUGUCAGAUUCUGGUGAAUCUGCGGGUUCUGCUGUAUAUCUC [G8U A28U A64G A65G]	0.1
UAACAGGUGGCCACAGCAGAAGCGUUCACGUUGCAGCCCCUGUCGGAUUCUGGUGAAUCUGCGACUUCUGCUGUAUAUCUC [G8U C32U A45G A65C]	0.1
UAACAGGUGGCCACAGCAGAAGCGUUCACGUCGCUGCCCCUGUCAGAUCCUGGUGAAUCAGCGAAUUAUGCUGUAUAUCUC [G8U A35U U49C U60A C68A]	0.14
UAACAGGUGGCCAUAGCUGAAGCGUUCACGUCGCAGCCCCUGUCAGAUUCUGGUGAAUCUGCGAAUUCUGCUGUAUAUCUC [G8U C14U A18U]	0.03
UAACAGGUGGCCACAGCAGAUGCGUCCACGCCGCAGCCCCUGUCAGAUUCAGGUGAAUCUGCGAAUUCUGCUGUAUAUCCC [G8U A21U U26C U31C U51A U80C]	0.04
